Measured values taken from the supplement of paper PMC10126150.
Values marked as one replicate rest on one cluster of the flow cell; about a third of the high ones do not repeat.
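Note: ATP exposure 15 min at 22 °C before imaging.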

What follows are sequences tested on ATP (assay: switch fluorescence ratio, 500 uM ATP over buffer (Cy3 cluster intensity, sum of 5 cycles each) (fold (ratio)); higher = stronger signal-on switching upon ATP binding; sequences stand for … in TCGTCGGCAGCGTCAGATGTGTATAAGAGACAGTTTTTTTTTTTTTTTTTTTTTTTTT…TC). Settings: aptamer strand: ATP DNA aptamer (quencher-CACCTGGGGGAGTATTGCGGAGGAAGG + anchor), 100 nM annealed; ATP concentration: 500 uM; one replicate.
How it was run: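 Imaging in selection buffer was followed by imaging after 15 min with 500 uM ATP at 22 °C, for Cy3-labelled switching-strand clusters annealed to 100 nM quencher-labelled ATP aptamer on a modified Illumina MiSeq flow-cell. Five of these buffer/ATP cycles ran, separated by NaOH stripping and re-annealing. The fluorescence ratio per cluster is summed target-cycle over summed buffer-cycle Cy3 intensity, averaged per switch-domain sequence; clusters outside 100-1000 RFU were removed.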
Sequence GGGGTATCCC has a switch fluorescence ratio of 0.989. GCCCTATAAT was tested, and the switch fluorescence ratio was 0.94. In the case of GGAGAATGAT, the switch fluorescence ratio is reported as 1.01. Sequence TGGGCACCGT has a switch fluorescence ratio of 1. In the case of CGATCTCAC, the switch fluorescence ratio is reported as 1.03. TCCGACGTCA showed a switch fluorescence ratio of 5.83. Sequence GAGTCCAGTG has a switch fluorescence ratio of 1.33. TGCGGTCAAG was tested, and the switch fluorescence ratio was 0.998. ATTTTGGTAA was tested, and the switch fluorescence ratio was 0.989. With GGTTTCTA the switch fluorescence ratio was 1.02. GATATTGGAC was tested, and the switch fluorescence ratio was 1. Work on GGCACTGGAG yielded a switch fluorescence ratio of 1.06. Work on CCTGTTTGCC yielded a switch fluorescence ratio of 1.02. Work on TGCGGCAAGT yielded a switch fluorescence ratio of 0.987. In the case of ACCTCAATAT, the switch fluorescence ratio is reported as 1.47. AGCATTGTAC showed a switch fluorescence ratio of 2.66. Sequence TAACGCAGGA has a switch fluorescence ratio of 1.11. Sequence ACCGTTTTCG has a switch fluorescence ratio of 1.02. GATCACGGGC gave a switch fluorescence ratio of 1.04. Work on ATTCGTTGTG yielded a switch fluorescence ratio of 0.944. Sequence TGAATCATGC has a switch fluorescence ratio of 0.971. With TAACGTAGAG the switch fluorescence ratio was 1.04. In the case of GCTGTCTATT, the switch fluorescence ratio is reported as 0.987. Sequence TCCTGGGTCG has a switch fluorescence ratio of 0.965. GTAAGGGTAT showed a switch fluorescence ratio of 0.975. Work on CGGCGGATAG yielded a switch fluorescence ratio of 1. In the case of CCAAAAACGG, the switch fluorescence ratio is reported as 1.06. Work on TTAAGCATAT yielded a switch fluorescence ratio of 1.2. Work on CTTTTAATGC yielded a switch fluorescence ratio of 1.05. With GGACCCTATG the switch fluorescence ratio was 0.957. In the case of CCCAAGACGG, the switch fluorescence ratio is reported as 1.16. ATTCGGGTCA was tested, and the switch fluorescence ratio was 0.981. For GTATATACTA, the switch fluorescence ratio was 1.02. For CGATCAACCG, the switch fluorescence ratio was 1. ACCAAAATCT was tested, and the switch fluorescence ratio was 1.15. CTTAGTATTA was tested, and the switch fluorescence ratio was 0.99. TCAGTAGGGC was tested, and the switch fluorescence ratio was 1.06. GAAGCAGCAT was tested, and the switch fluorescence ratio was 1.1. TATATGGTTA gave a switch fluorescence ratio of 0.99. ATTAGTTCGA gave a switch fluorescence ratio of 0.951. CGACTAAGGC was tested, and the switch fluorescence ratio was 1.06. In the case of TATTGTTTGT, the switch fluorescence ratio is reported as 0.994. Sequence CACGTTTCGG has a switch fluorescence ratio of 1.03. In the case of TGCGGCATGA, the switch fluorescence ratio is reported as 1.03. With TAACAGAGGA the switch fluorescence ratio was 0.986. Work on TGTTACCTCC yielded a switch fluorescence ratio of 1.3. TGACGGTCAT was tested, and the switch fluorescence ratio was 0.984. ACAAATTTT was tested, and the switch fluorescence ratio was 1.01. TAGTCATGAT was tested, and the switch fluorescence ratio was 1.04. Work on TACAGAGTAA yielded a switch fluorescence ratio of 1.01. ATAAAGACGA showed a switch fluorescence ratio of 1. TCTCCACCCC was tested, and the switch fluorescence ratio was 1.17. With CAAGGCAGGG the switch fluorescence ratio was 0.988. In the case of TTGCTCTTAG, the switch fluorescence ratio is reported as 1.05. GTATATATTA was tested, and the switch fluorescence ratio was 1.01. For TTATGTCCCT, the switch fluorescence ratio was 1.01. CCGTTGGCTC showed a switch fluorescence ratio of 1.44. GGATTCGGGG gave a switch fluorescence ratio of 1.02. In the case of TGGGAGCAAA, the switch fluorescence ratio is reported as 1.01. For AAGCTCCCAC, the switch fluorescence ratio was 1.16. Sequence ATCATTAGGT has a switch fluorescence ratio of 0.971. In the case of CACGTTATAT, the switch fluorescence ratio is reported as 1.18. Work on AGAGTTTA yielded a switch fluorescence ratio of 0.978. Work on CGCTTCATGT yielded a switch fluorescence ratio of 1.05. In the case of CCACCAGAGT, the switch fluorescence ratio is reported as 2.24. For CTGCGTCCGG, the switch fluorescence ratio was 1.06. Sequence CTGCAACTGG has a switch fluorescence ratio of 2.41. GGGTGTACG gave a switch fluorescence ratio of 0.992. In the case of TATCTGATCT, the switch fluorescence ratio is reported as 1.06. With AGCATAAGGA the switch fluorescence ratio was 1.03. Sequence TAGCACGATA has a switch fluorescence ratio of 1.13. With GCGCTAAGTA the switch fluorescence ratio was 1.01. With GCGTTGGCGT the switch fluorescence ratio was 1. Work on TTGATAAAG yielded a switch fluorescence ratio of 0.989. Sequence CTAAGAAAAG has a switch fluorescence ratio of 1.04. For TGGGGAACTC, the switch fluorescence ratio was 1.05. With CGTGCTACGG the switch fluorescence ratio was 0.972. Work on CCCCTGGCGT yielded a switch fluorescence ratio of 2.14. In the case of CCGGTGGCAT, the switch fluorescence ratio is reported as 2.43. Work on TGTCTTCGCA yielded a switch fluorescence ratio of 1.05. CAGGTGCCTT showed a switch fluorescence ratio of 1.53. Work on GACAGATTTT yielded a switch fluorescence ratio of 1.02. In the case of CGAGGCATCC, the switch fluorescence ratio is reported as 1.49. For TACTTTGTTT, the switch fluorescence ratio was 0.966. TCACTTGTGT was tested, and the switch fluorescence ratio was 0.999. For GCCAATGGCT, the switch fluorescence ratio was 0.967. Sequence TCAGTTTCCG has a switch fluorescence ratio of 1.21. In the case of ATATCCAGTA, the switch fluorescence ratio is reported as 1.04. For CTTCAGGGTC, the switch fluorescence ratio was 1.01. With GCAGGCCTGT the switch fluorescence ratio was 0.977. For GACATCAGGG, the switch fluorescence ratio was 0.969. Sequence TGGCTTTGTC has a switch fluorescence ratio of 0.944. Sequence GTGAACCATG has a switch fluorescence ratio of 1.04. Work on TTTACAGCGG yielded a switch fluorescence ratio of 1.01. With CTCAGATGTA the switch fluorescence ratio was 1.03. For GCGTGAGAA, the switch fluorescence ratio was 1. TTCGGACAGA showed a switch fluorescence ratio of 1. For GCCCAGACCT, the switch fluorescence ratio was 1.1. Sequence TGAGTAACCT has a switch fluorescence ratio of 1.75. GCTGTACGTC was tested, and the switch fluorescence ratio was 1.09. AGCGTCGATA was tested, and the switch fluorescence ratio was 1.03. TATATAATTG showed a switch fluorescence ratio of 0.981. Sequence CGGCGCGTGG has a switch fluorescence ratio of 1.02. With TTTCACCAAA the switch fluorescence ratio was 0.983. Sequence AGGGGCGAA has a switch fluorescence ratio of 0.989. For TAATTTCTA, the switch fluorescence ratio was 1.03. GTCATCAAGC was tested, and the switch fluorescence ratio was 1.05. With AATCAAAGTA the switch fluorescence ratio was 0.975. Sequence GAGGTTACT has a switch fluorescence ratio of 1.02. TCGGGAAGTC gave a switch fluorescence ratio of 1.03. Sequence GGATCAACTA has a switch fluorescence ratio of 1.05. ACGTTGGGAG gave a switch fluorescence ratio of 0.97. With CGCAGTCCGT the switch fluorescence ratio was 1.06. TAGCAGGATT showed a switch fluorescence ratio of 1.04. ATTCAGAATT was tested, and the switch fluorescence ratio was 1.02. In the case of ATGGTTGTAT, the switch fluorescence ratio is reported as 1.01. In the case of GTCGTACCAG, the switch fluorescence ratio is reported as 0.97. CAGACCCTTA showed a switch fluorescence ratio of 1.03. GACTGCATAA was tested, and the switch fluorescence ratio was 1.37. With GGCTTCACTG the switch fluorescence ratio was 0.961. With GGGCCTCTGC the switch fluorescence ratio was 1. With GTATTTCAGC the switch fluorescence ratio was 0.986. Sequence ATTGGGGCTA has a switch fluorescence ratio of 0.966. Work on CTTTATGAGT yielded a switch fluorescence ratio of 1.06. For TTCAGGCGTC, the switch fluorescence ratio was 1.04. For GGCGCGTCGT, the switch fluorescence ratio was 1.01. With AGGGGAGCCA the switch fluorescence ratio was 0.954. TGATGTGCAC was tested, and the switch fluorescence ratio was 0.913. GGCTATCGCA gave a switch fluorescence ratio of 1.05. CTGTGATAGG showed a switch fluorescence ratio of 0.964. With CTTCAAAGCT the switch fluorescence ratio was 1.08. TTCGACTACC showed a switch fluorescence ratio of 1.18. With CCATCCCATT the switch fluorescence ratio was 1.07. In the case of CGAATTTTG, the switch fluorescence ratio is reported as 0.98. AAGTCCTAT was tested, and the switch fluorescence ratio was 0.997. In the case of TGCATGAGAC, the switch fluorescence ratio is reported as 1.06. GGAATCATGA was tested, and the switch fluorescence ratio was 0.968. With ATGACCTAGT the switch fluorescence ratio was 1.03. With GTGGTCCCAC the switch fluorescence ratio was 0.985. GAAGACTAAA showed a switch fluorescence ratio of 0.989. Work on TGACGGTTAT yielded a switch fluorescence ratio of 1.03. Work on CGATAGAACC yielded a switch fluorescence ratio of 1.01. GTTTGCGCC was tested, and the switch fluorescence ratio was 1.06. Sequence TACCGGCGAT has a switch fluorescence ratio of 1.02. CATGTCGGAT showed a switch fluorescence ratio of 0.957. In the case of GGCCGAAATG, the switch fluorescence ratio is reported as 1.01. CTGCTGATTG showed a switch fluorescence ratio of 1.04. Sequence GGTAGCCCGT has a switch fluorescence ratio of 0.936. For CTTATGTTAC, the switch fluorescence ratio was 1.07. Work on TTGATCAACC yielded a switch fluorescence ratio of 1.07. CGATTTGTCC showed a switch fluorescence ratio of 0.997. ATCATCCAAG was tested, and the switch fluorescence ratio was 0.994. With GCTTCACCGA the switch fluorescence ratio was 1.03. For ATTCGCTGCG, the switch fluorescence ratio was 1.04. With AAGTATTGGA the switch fluorescence ratio was 1.04. ACCTCCGTGG gave a switch fluorescence ratio of 1.59. In the case of CAAGCTCTGG, the switch fluorescence ratio is reported as 1. CACTCGCGAT showed a switch fluorescence ratio of 3.17. TTCTCCTAGT gave a switch fluorescence ratio of 0.996. In the case of GTCTTGGGAG, the switch fluorescence ratio is reported as 1. TCGTCTGTCT gave a switch fluorescence ratio of 1.02. ATCCGCAAGG gave a switch fluorescence ratio of 3.86. ACCTTGCATT was tested, and the switch fluorescence ratio was 1.1. GGAACTCGTT gave a switch fluorescence ratio of 1.02. Work on TCGTCTTTCT yielded a switch fluorescence ratio of 1.01. With AATGACTATC the switch fluorescence ratio was 0.998. CACGTGCGTT gave a switch fluorescence ratio of 1.03. CGGCAGATAG showed a switch fluorescence ratio of 1.16. ATCGTTTTCT was tested, and the switch fluorescence ratio was 1.02. For CCATGGGGAG, the switch fluorescence ratio was 1.02. TCTATGTAAC was tested, and the switch fluorescence ratio was 1.03. GTCGCGCCGT gave a switch fluorescence ratio of 0.994. Sequence TGAACTATA has a switch fluorescence ratio of 0.999. TGTACCGCAG gave a switch fluorescence ratio of 1.23. For CTTGGGACGC, the switch fluorescence ratio was 1.16. TGGCAGATGT gave a switch fluorescence ratio of 1.1. In the case of TTTTCTTTCG, the switch fluorescence ratio is reported as 1. TGTGAGAAAA showed a switch fluorescence ratio of 1.04. Sequence TGCTATGCTG has a switch fluorescence ratio of 0.981. ACCTGCGCAG gave a switch fluorescence ratio of 1.1. With GCCACTGGAG the switch fluorescence ratio was 1.02. For CTCATTTTGC, the switch fluorescence ratio was 0.996. For CCGTAGACTG, the switch fluorescence ratio was 1.32. ATGCTCAGGA was tested, and the switch fluorescence ratio was 1.04. CTGGAGGTTA showed a switch fluorescence ratio of 1.03. In the case of TCTAGAGTTA, the switch fluorescence ratio is reported as 1.01. For GGGGAGTTGC, the switch fluorescence ratio was 1.03. AACTGATTAA gave a switch fluorescence ratio of 0.988. CCGGTTGCCT was tested, and the switch fluorescence ratio was 1. GTTAATGCTT gave a switch fluorescence ratio of 0.969. AAGTGGGACA gave a switch fluorescence ratio of 0.979. CCTCTTTGAA gave a switch fluorescence ratio of 1.14. TCCAGCGCCC showed a switch fluorescence ratio of 1.04. For AGCTAATAT, the switch fluorescence ratio was 1.1. TACACTTGTG showed a switch fluorescence ratio of 0.981. GCTCTTAGGG was tested, and the switch fluorescence ratio was 1.03. For CAGCCCTTTC, the switch fluorescence ratio was 1.27. In the case of GAAGTCTCGA, the switch fluorescence ratio is reported as 0.968. TCAGCGCTCT was tested, and the switch fluorescence ratio was 0.973. Sequence ACTATTAAAT has a switch fluorescence ratio of 1.01.
